21 compounds from ChEMBL document CHEMBL5606460, “ASAP - DENV-2 NS2B-NS3 protease fluorescence single point” (2024) can be followed below.

The experiment concerns the target Genome polyprotein (dengue virus type 2) (UniProt P29990).
The mark [1] stands for this setting: Thailand/16681/1984, Concentration 25.0 uM, Number of replicates 1.0.

Each structure is given as a SMILES string. Out of some 2,000 compounds screened, about 110 (5.5%) showed an effect of 50% or more. The list shows a part of the results.

Take `O=Cc1ccc(N2CCC(C(=O)NCCCc3cccc(C(F)(F)F)c3)CC2)cc1`: the inhibition (as a rule, the change of the read-out against control, counted positive when it falls) under setting [1] amounted to 7.75%.

For `CCCOc1ccc([C@H](C)NC(=O)C2CCN(c3ccc(C=O)cc3)CC2)cc1`, under setting [1], the inhibition was determined as 7.26%.

On to `COc1ccccc1N1CCN(C(=O)c2cccc(Cc3cccc4c(CO)cc(C)nc34)c2)CC1`, for which the inhibition runs as follows: (Thailand/16681/1984, Concentration 49.95 uM, Number of replicates 2.0, Standard deviation 0.6431934456432933 %) -0.936%; (Thailand/16681/1984, Concentration 99.9 uM, Number of replicates 2.0, Standard deviation 0.11282846216281567 %) 3.6%.

Consider `COc1cc(Cc2cc(F)c3c(c2)CC(=O)N3)nc(N2CCNCC2)n1`, for which the inhibition by setting is: (Thailand/16681/1984, Concentration 49.5 uM, Number of replicates 2.0, Standard deviation 0.6150371592018935 %) -4.98%; (Thailand/16681/1984, Concentration 99.01 uM, Number of replicates 2.0, Standard deviation 0.5721276213203463 %) -3.56%; (Thailand/16681/1984, Concentration 198.0 uM, Number of replicates 2.0, Standard deviation 0.9306609149462733 %) -1.84%.

With `Nc1ccc(/C=C/C(=O)C(=O)N2CCN(CCc3ccccc3)CC2)cc1`, the inhibition is 23.4% (Thailand/16681/1984, Concentration 49.5 uM, Number of replicates 2.0, Standard deviation 0.14046836541625998 %); 40.1% (Thailand/16681/1984, Concentration 99.01 uM, Number of replicates 2.0, Standard deviation 0.26272659487750905 %); 60.1% (Thailand/16681/1984, Concentration 198.0 uM, Number of replicates 2.0, Standard deviation 0.8058693227147314 %).

For the compound `c1ccc2[nH]c(CC3CCN(c4ncnc5[nH]ccc45)CC3)nc2c1`, the inhibition by setting is: (Thailand/16681/1984, Concentration 49.5 uM, Number of replicates 2.0, Standard deviation 4.772497632487813 %) -2.04%; (Thailand/16681/1984, Concentration 99.01 uM, Number of replicates 2.0, Standard deviation 4.5827419837796395 %) -1.49%; (Thailand/16681/1984, Concentration 198.0 uM, Number of replicates 2.0, Standard deviation 5.067620233885826 %) 1.19%.

Consider `NCc1ccc(NC(=O)[C@@H](NC(=O)OCc2ccccc2)c2ccc(OCc3ccccc3)cc2)cc1`, for which the inhibition is, setting by setting: (Thailand/16681/1984, Concentration 49.5 uM, Number of replicates 2.0, Standard deviation 0.2921733335266154 %) 1.85%; (Thailand/16681/1984, Concentration 99.01 uM, Number of replicates 2.0, Standard deviation 0.5182536650923871 %) 1.48%; (Thailand/16681/1984, Concentration 198.0 uM, Number of replicates 2.0, Standard deviation 0.5806748336109616 %) 1.92%.

In the case of `O=C(Nc1ccc2c(c1)CNC2)c1cc(Cl)cc2[nH]c(-c3cc(C4CC4)[nH]n3)nc12`, the inhibition reads like this: (Thailand/16681/1984, Concentration 99.5 uM, Number of replicates 2.0, Standard deviation 0.13306805316732315 %) 94.6%; (Thailand/16681/1984, Concentration 295.6 uM, Number of replicates 2.0, Standard deviation 0.23606011523727233 %) 88.6%.

Consider `Cc1cc(CO)c2cccc(Cc3cccc(NC(=O)Cc4nnc(C)[nH]4)c3)c2n1`, for which the inhibition reads like this: (Thailand/16681/1984, Concentration 49.95 uM, Number of replicates 2.0, Standard deviation 1.2741879074535936 %) 3.5%; (Thailand/16681/1984, Concentration 99.9 uM, Number of replicates 2.0, Standard deviation 2.117340332361062 %) 15.6%.

Regarding `Cc1cc(CO)c2cccc(NCc3ccc(C)o3)c2n1`, the inhibition turned out to be 14.8% (Thailand/16681/1984, Concentration 49.95 uM, Number of replicates 2.0, Standard deviation 1.8316716905525268 %) and 24.7% (Thailand/16681/1984, Concentration 99.9 uM, Number of replicates 2.0, Standard deviation 1.056399631157552 %).

`CC(C)Nc1nc2cc(NC(=O)[C@@H](NC(=O)OC(C)(C)C)c3ccccc3)ccc2[nH]1`: the inhibition (Thailand/16681/1984, Concentration 49.5 uM, Number of replicates 2.0, Standard deviation 1.6144805508061877 %) is -4.38%; the inhibition (Thailand/16681/1984, Concentration 99.01 uM, Number of replicates 2.0, Standard deviation 0.9738051264803291 %) was -3.44%; the inhibition (Thailand/16681/1984, Concentration 198.0 uM, Number of replicates 2.0, Standard deviation 1.1960694823819247 %) was -2.77%.

As to `CC(=O)Nc1ccc(NC(=O)C2CCN(c3ccc(C=O)cc3)CC2)c(C(F)(F)F)c1`, the inhibition under setting [1] was found to be 14.6%.

Turning to `CN(C)CCNC(=O)c1ccc(N2CCNCC2)nc1`, the inhibition runs as follows: (Thailand/16681/1984, Concentration 49.5 uM, Number of replicates 2.0, Standard deviation 3.571913716868189 %) -4.62%; (Thailand/16681/1984, Concentration 99.01 uM, Number of replicates 2.0, Standard deviation 2.0054637146250163 %) -3.89%; (Thailand/16681/1984, Concentration 198.0 uM, Number of replicates 2.0, Standard deviation 1.2373052846154071 %) -1.98%.

As for `CCn1ncc(Cc2cc(OC)nc(N3CCNCC3)n2)c1F`, the inhibition was -1.17% (Thailand/16681/1984, Concentration 49.5 uM, Number of replicates 2.0, Standard deviation 1.4530630100438908 %); -1.68% (Thailand/16681/1984, Concentration 99.01 uM, Number of replicates 2.0, Standard deviation 2.9455327966098612 %); -0.743% (Thailand/16681/1984, Concentration 198.0 uM, Number of replicates 2.0, Standard deviation 1.1187861286248701 %).

Take `O=C(Nc1ccc2c(c1)CNC2)c1cc(Cl)cc(C(F)(F)F)n1`: the inhibition stood at 98% (Thailand/16681/1984, Concentration 99.5 uM, Number of replicates 2.0, Standard deviation 0.07984298981903766 %) and 99.8% (Thailand/16681/1984, Concentration 295.6 uM, Number of replicates 2.0, Standard deviation 0.03008678069059277 %).

In the case of `Cc1cn(-c2cc(NC(=O)C3CCN(c4ccc(C=O)cc4)CC3)cc(C(F)(F)F)c2)cn1`, under setting [1], the inhibition stood at 12.1%.

Regarding `NCc1ccc(C[C@H](NC(=O)c2ccccc2)C(=O)Nc2cccc(C(N)=O)c2)cc1`, the inhibition is, setting by setting: (Thailand/16681/1984, Concentration 49.5 uM, Number of replicates 2.0, Standard deviation 0.2094720287352659 %) -3.21%; (Thailand/16681/1984, Concentration 99.01 uM, Number of replicates 2.0, Standard deviation 1.2712236353041253 %) -1.98%; (Thailand/16681/1984, Concentration 198.0 uM, Number of replicates 2.0, Standard deviation 0.9103772804850719 %) -0.193%.

In the case of `COc1cccc2c(NCc3ccc(F)cc3)nccc12`, the inhibition (Thailand/16681/1984, Concentration 49.95 uM, Number of replicates 2.0, Standard deviation 5.311619298096004 %) is -8.98%.

Turning to `COc1ccc2nc(C(F)(F)F)nc(N3CCN(c4ccc(N)nc4)CC3)c2c1`, the inhibition amounted to 10.4% (Thailand/16681/1984, Concentration 49.5 uM, Number of replicates 2.0, Standard deviation 1.255766362906452 %); 22.8% (Thailand/16681/1984, Concentration 99.01 uM, Number of replicates 2.0, Standard deviation 0.6332142520276719 %); 39.7% (Thailand/16681/1984, Concentration 198.0 uM, Number of replicates 2.0, Standard deviation 1.6656488479471416 %).

For `Cc1cc(CO)c2cccc(CC(=O)N[C@@H](C)C(N)=O)c2n1`, the inhibition was -6.74% (Thailand/16681/1984, Concentration 49.95 uM, Number of replicates 2.0, Standard deviation 0.6764350022386235 %) and -4.59% (Thailand/16681/1984, Concentration 99.9 uM, Number of replicates 2.0, Standard deviation 0.17585957987303982 %).

Regarding `CC(C)(CO)NC(=O)c1cc(Cl)cc(NC(=O)Cc2cccc(N3CCOCC3)c2)c1`, the inhibition is, setting by setting: (Thailand/16681/1984, Concentration 49.5 uM, Number of replicates 2.0, Standard deviation 3.685760784065816 %) -4.97%; (Thailand/16681/1984, Concentration 99.01 uM, Number of replicates 2.0, Standard deviation 1.8930329501247494 %) -3.18%; (Thailand/16681/1984, Concentration 198.0 uM, Number of replicates 2.0, Standard deviation 0.7981856150564074 %) -3.79%.
